Reference: US20250270339A1 (Alector, published 2025)

T1: Cyno TfR ECD Avi-His (cynomolgus macaque, UniProt Q5RDH6 89-760 (Pongo abelii entry), biotin on the Avi tag (BirA) where captured on streptavidin)
T1 construct: also called Cyno TfR Avi-His; cyno TfR Avi-His
T1 chain: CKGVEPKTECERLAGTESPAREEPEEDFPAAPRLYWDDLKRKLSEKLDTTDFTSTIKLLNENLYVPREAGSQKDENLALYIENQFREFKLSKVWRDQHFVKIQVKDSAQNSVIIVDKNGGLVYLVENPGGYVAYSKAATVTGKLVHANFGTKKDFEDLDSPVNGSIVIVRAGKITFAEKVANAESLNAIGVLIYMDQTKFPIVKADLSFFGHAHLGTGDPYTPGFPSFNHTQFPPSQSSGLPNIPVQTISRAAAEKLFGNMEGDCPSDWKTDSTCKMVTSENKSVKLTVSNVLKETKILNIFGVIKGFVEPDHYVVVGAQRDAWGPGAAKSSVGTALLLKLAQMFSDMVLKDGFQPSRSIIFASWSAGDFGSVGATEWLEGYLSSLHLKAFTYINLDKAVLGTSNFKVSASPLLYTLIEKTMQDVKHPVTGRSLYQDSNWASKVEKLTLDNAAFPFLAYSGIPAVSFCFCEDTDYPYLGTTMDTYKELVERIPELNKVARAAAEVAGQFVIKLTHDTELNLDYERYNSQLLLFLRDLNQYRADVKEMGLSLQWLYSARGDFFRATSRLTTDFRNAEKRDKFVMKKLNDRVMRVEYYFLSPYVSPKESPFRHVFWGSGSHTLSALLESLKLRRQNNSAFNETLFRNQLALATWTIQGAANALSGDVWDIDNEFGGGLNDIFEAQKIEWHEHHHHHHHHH

B1: TfR9.1B.11 2+1 anti-TfR bispecific antibody (bispecific antibody, human IgG1, kappa)
heavy 1: EVRLLESGGGLVQPGGSLRLSCAASGFTFSNYAMGWVRQAPGKGLEWVSAISGSGGSTYYADSVKGRFTTSRDDSKNALYLQMNSLRAEDTAVYYCARGGPGWYAADVWGQGTTVTVSSASTKGPSVFPLAPSSKSTSGGTAALGCLVKDYFPEPVTVSWNSGALTSGVHTFPAVLQSSGLYSLSSVVTVPSSSLGTQTYICNVNHKPSNTKVDKKV[here human IgG1 Fc with changes without letters]GGGGSGGGGSGGGGSQVQLVQSGAEVKKPGASVKVSCKASGYTFTEYAMHWVRQAPGQGLEWMGGINPNDGGTSYNQKFKGRVTMTVDTSTSTAYMELSSLRSEDTAVYYCASQRWLERGGDYWGQGTLVTVSSGGSEGKSSGSGSESKSTGGSDVVMTQSPLSLPVTLGQPASISCKSSQSLLDSDGVTYLNWLQQRPGQSPRRLIYLVSKLDSGVPDRFSGSGSGTDFTLKISRVEAEDVGVYYCWQGTHFPQTFGGGTKVEIK
heavy 2: EVRLLESGGGLVQPGGSLRLSCAASGFTFSNYAMGWVRQAPGKGLEWVSAISGSGGSTYYADSVKGRFTTSRDDSKNALYLQMNSLRAEDTAVYYCARGGPGWYAADVWGQGTTVTVSS[here human IgG1 constant region with changes without letters]
light: DIQMTQSPSSLSASVGDRVTITCRASQSISSYLNWYQQKPGKAPKLLIYAASSLQSGVPSRFSGSGSGTDFTLTISSLQPEDFATYYCQQADLPAFAFGGGTKVEIKRTVAAPSVFIFPPSDEQLKSGTASVVCLLNNFYPREAKVQWKVDNALQSGNSQESVTEQDSKDSTYSLSSTLTLSKADYEKHKVYACEVTHQGLSSPVTKSFNRGEC
notes: 2+1
B2: TfR9.1B.9 2+1 anti-TfR bispecific antibody (bispecific antibody, human IgG1, kappa)
heavy 1: EVRLLESGGGLVQPGGSLRLSCAASGFTFSNYAMGWVRQAPGKGLEWVSAISGSGGSTYYADSVKGRFTTSRDDSKNALYLQMNSLRAEDTAVYYCARGGPGWYAADVWGQGTTVTVSSASTKGPSVFPLAPSSKSTSGGTAALGCLVKDYFPEPVTVSWNSGALTSGVHTFPAVLQSSGLYSLSSVVTVPSSSLGTQTYICNVNHKPSNTKVDKKV[here human IgG1 Fc with changes without letters]GGGGSGGGGSGGGGSQVQLVQSGAEVKKPGASVKVSCKASGYTFTEYAMHWVRQAPGQGLEWMGGINPNDGGTSYNQKFKGRVTMTVDTSTSTAYMELSSLRSEDTAVYYCASQRWLERGGDYWGQGTLVTVSSGGSEGKSSGSGSESKSTGGSDVVMTQSPLSLPVTLGQPASISCKSSVSLLDSDGKTYLNWLQQRPGQSPRRLIYLVSKLDSGVPDRFSGSGSGTDFTLKISRVEAEDVGVYYCWQGTHFPQTFGGGTKVEIK
heavy 2: EVRLLESGGGLVQPGGSLRLSCAASGFTFSNYAMGWVRQAPGKGLEWVSAISGSGGSTYYADSVKGRFTTSRDDSKNALYLQMNSLRAEDTAVYYCARGGPGWYAADVWGQGTTVTVSS[here human IgG1 constant region with changes without letters]
light: B1 light
notes: 2+1
B3: TfR9.1B.26 2+1 anti-TfR bispecific antibody (bispecific antibody, human IgG1, kappa)
heavy 1: EVRLLESGGGLVQPGGSLRLSCAASGFTFSNYAMGWVRQAPGKGLEWVSAISGSGGSTYYADSVKGRFTTSRDDSKNALYLQMNSLRAEDTAVYYCARGGPGWYAADVWGQGTTVTVSSASTKGPSVFPLAPSSKSTSGGTAALGCLVKDYFPEPVTVSWNSGALTSGVHTFPAVLQSSGLYSLSSVVTVPSSSLGTQTYICNVNHKPSNTKVDKKV[here human IgG1 Fc with changes without letters]GGGGSGGGGSGGGGSQVQLVQSGAEVKKPGASVKVSCKASGYTFTEYAMHWVRQAPGQGLEWMGGINPNDGGTSYNQKFKGRVTMTVDTSTSTAYMELSSLRSEDTAVYYCASQGWLLRGGDYWGQGTLVTVSSGGSEDKSSGSGSESKSTGGSDVVMTQSPLSLPVTLGQPASISCKSSQSLLDSDGVTYLNWLQQRPGQSPRRLIYLVSKLDSGVPDRFSGSGSGTDFTLKISRVEAEDVGVYYCWQGTHFPQTFGGGTKVEIK
heavy 2: EVRLLESGGGLVQPGGSLRLSCAASGFTFSNYAMGWVRQAPGKGLEWVSAISGSGGSTYYADSVKGRFTTSRDDSKNALYLQMNSLRAEDTAVYYCARGGPGWYAADVWGQGTTVTVSS[here human IgG1 constant region with changes without letters]
light: B1 light
notes: 2+1
B4: TfR9.1B.22 2+1 anti-TfR bispecific antibody (bispecific antibody, human IgG1, kappa)
heavy 1: EVRLLESGGGLVQPGGSLRLSCAASGFTFSNYAMGWVRQAPGKGLEWVSAISGSGGSTYYADSVKGRFTTSRDDSKNALYLQMNSLRAEDTAVYYCARGGPGWYAADVWGQGTTVTVSSASTKGPSVFPLAPSSKSTSGGTAALGCLVKDYFPEPVTVSWNSGALTSGVHTFPAVLQSSGLYSLSSVVTVPSSSLGTQTYICNVNHKPSNTKVDKKV[here human IgG1 Fc with changes without letters]GGGGSGGGGSGGGGSQVQLVQSGAEVKKPGASVKVSCKASGYTFTEYAMHWVRQAPGQGLEWMGGINPKDGGTSYNQKFKGRVTMTVDTSTSTAYMELSSLRSEDTAVYYCASQGWLLRGGDYWGQGTLVTVSSGGSEGKSSGSGSESKSTGGSDVVMTQSPLSLPVTLGQPASISCKSSQSLLDSDGKTYLNWLQQRPGQSPRRLIYLVSKLDSGVPDRFSGSGSGTDFTLKISRVEAEDVGVYYCWQGTHFPQTFGGGTKVEIK
heavy 2: EVRLLESGGGLVQPGGSLRLSCAASGFTFSNYAMGWVRQAPGKGLEWVSAISGSGGSTYYADSVKGRFTTSRDDSKNALYLQMNSLRAEDTAVYYCARGGPGWYAADVWGQGTTVTVSS[here human IgG1 constant region with changes without letters]
light: B1 light
notes: 2+1

Target: T1, Cyno TfR ECD Avi-His
Test: SPR (Carterra LSA), 2+1 immobilised
Description: The remaining unconjugated active groups on the chip were then blocked by injecting 1M Ethanolamine pH 8.5 (Carterra) for 7 minutes using the single channel flow cell.
Estimates of affinity were generated by injecting each analyte over the entire antibody array using the single channel flow cell. […] Data were processed and analyzed using NextGenKIT high-throughput kinetics analysis software (Carterra).

Binding result, binds:
B1
B2
B3
B4
